Experimental findings from ChEMBL document CHEMBL1201862, “PubChem BioAssay data set” (2004) are described below.

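Exposure lasted 48 hours, with cells grown in 96-well plates and compounds tested at five concentrations. At the GI50, growth is halved.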 The source made the active and inactive calls. Cut-off read from the data, not from the text of the source: active = GI50 up to about 1.1 µM and inactive = higher.

The assay deals with NCI-H322M. Nature of the assay: NCI-60 cell line screen, 48 h.
For `Cn1c(Sc2ccc(-c3cccnc3)n2C)ccc1-c1cccnc1`, the GI50 was inactive: 24.6 µM.

`CCn1c2c(c3ccccc3c1=O)C(=O)c1ccccc1-2`: the GI50 is inactive: > 100 µM.

As for `[N-]=[N+]=CC(=O)OCC(N)C(=O)O` (stereo not drawn), the GI50 was inactive: 1.26 µM.

Consider `COc1cccc(C2c3cc4c(cc3OC(N3CCOCC3)C2C)OCO4)c1O` (stereo not drawn), for which the GI50 was inactive: 9.27 µM.

Regarding `C=C1C(=O)OCC2C(C(=O)O)=CC3C(C)C(C)=CC123` (stereo not drawn), the GI50 is inactive: 10.7 µM.

`C=C1CC/C=C(\C)CCC[C@H](C)[C@@H](O)[C@@H]2OC(=O)C(=C)[C@@H]2C[C@H]1O`: the GI50 is inactive: 24.1 µM.

As for `COc1ccc(-c2cc(-c3ccccc3)nc(N)c2-c2ccc3ccccc3c2)cc1`, the GI50 is inactive: 1.93 µM.

On to `CC(=O)Nc1ccc(C(=O)NN2C(=O)CSC2c2ccc(O)cc2)cc1` (stereo not drawn), for which the GI50 is inactive: > 100 µM.

As to `CC(=O)c1cccc(Nc2nc3ccc(Cl)cc3c3[nH]c4ccccc4c23)c1`, the GI50 is inactive: 4.7 µM.

For the compound `CCCc1c(Cl)nc(Cl)nc1Cl`, the GI50 is inactive: 6.98 µM.

On to `CC(C)=NNc1snnc1C(N)=O`, for which the GI50 is inactive: > 100 µM.

Take `O=c1c2cc3c(cc2c2cccc4c2n1CCC4)OCO3`: the GI50 was inactive: 28.4 µM.

With `O=C(CC1(O)C(=O)Nc2c(Cl)cccc21)c1ccccc1` (stereo not drawn), the GI50 was inactive: > 100 µM.

`COc1ccc(Cn2c3c(cc(OC(C)=O)c2=O)Cc2ccccc2-3)cc1`: the GI50 is inactive: 9.84 µM.

As to `CC1(C)O[C@@H](CP(c2ccc3ccccc3c2)c2ccc3ccccc3c2)[C@H](CP(c2ccc3ccccc3c2)c2ccc3ccccc3c2)O1`, the GI50 was inactive: > 100 µM.

Consider `O=C(OCC(OC(=O)c1ccccc1)C(OC(=O)c1ccccc1)C(OC(=O)c1ccccc1)c1cnn(-c2ccccc2)n1)c1ccccc1` (stereo not drawn), for which the GI50 was inactive: > 100 µM.

Consider `Cc1ccc(SC[C@@]2(C(F)F)NC(=O)NC2=O)cc1`, for which the GI50 was inactive: > 100 µM.

Consider `O=C1c2cc3c(cc2CC12Cc1ccc4c(c1C2=O)CCCC4)CCCC3` (stereo not drawn), for which the GI50 was inactive: > 100 µM.

With `Clc1nc(Nc2nc3ccccc3[nH]2)nc(Cl)c1-c1ccccc1`, the GI50 is inactive: > 100 µM.

Consider `S=C(Cc1ccc2c(c1)Sc1ccccc1O2)N1CCOCC1`, for which the GI50 was inactive: 53.7 µM.

For the compound `N#CC(C#N)SCc1ccccc1`, the GI50 was inactive: > 65.9 µM.

As to `COc1cc(OCc2ccc3oc(=O)c(-c4ccccc4)nc3c2)cc(OC)c1OC`, the GI50 was inactive: > 100 µM.

Consider `COc1cc(O)c2c(c1)C(O)C(O)CC1OC1C(=O)/C=C/CC(C)OC2=O` (stereo not drawn), for which the GI50 is inactive: 15.6 µM.

On to `N#CCCc1nc2ccc(Br)cc2c(=O)n1-c1ccc(O)c([N+](=O)[O-])c1`, for which the GI50 was inactive: 16.4 µM.

`O=C(/C=C/c1ccc2c(c1)OCO2)NCCc1ccco1`: the GI50 is inactive: 76.4 µM.

Regarding `c1ccc2cc3n[se]nc3cc2c1`, the GI50 is inactive: 22.5 µM.

Consider `COc1ccc(OC)c2sc(N3C(=O)/C(=C/c4ccccc4S)N=C3c3ccccc3)nc12`, for which the GI50 is inactive: > 100 µM.

Consider `NC1=C(NC(=O)Cc2ccccc2F)C(=O)c2ccccc2C1=O`, for which the GI50 is inactive: > 100 µM.

As to `O=S(=O)(O)c1cc(/N=N/c2cccc3ccccc23)c(O)c2ncccc12`, the GI50 is inactive: 29.8 µM.

Turning to `C/C(CC(=O)Nc1ccc(NC(=O)C/C(C)=N\NC(N)=O)cc1)=N/NC(N)=O`, the GI50 was inactive: > 100 µM.

Take `CCCN(CCC)CCc1cc(C(C)=O)n(S(=O)(=O)c2ccc(C)cc2)c1`: the GI50 is inactive: > 100 µM.

Turning to `CCOC(=O)c1c(N2CCCC2)[nH]c(=O)c(C(c2ccc(OC)cc2)c2c(O)c(C(=O)OCC)c(N3CCCC3)[nH]c2=O)c1O`, the GI50 was inactive: 81.5 µM.

As to `Cc1ccc(-c2n[nH]c(=O)n2N2C(=O)C=CC2=O)cc1`, the GI50 is inactive: > 100 µM.

As for `Cc1cc2nc3c(=O)n(C)c(=O)nc-3n(-c3ccc(Cl)cc3)c2cc1C`, the GI50 was inactive: 13.2 µM.

For the compound `O=C(C(=O)c1cc2ccccc2[nH]1)c1cc2ccccc2[nH]1`, the GI50 is inactive: > 347 µM.

Consider `COC(=O)C12OCC34C(CC5C(C)C6=CC(=O)OC6=CC5(C)C3C(O)C1O)OC(=O)C(OC(C)=O)C24` (stereo not drawn), for which the GI50 was inactive: 19 µM.

Regarding `CC1=C[C@H](O)[C@@]2(C)[C@@H]([C@@H]1C)[C@H]1CC[C@@H]3[C@@]4(C)CC[C@H](O)C(C)(C)[C@@H]4CC[C@@]3(C)[C@]1(C)C[C@@H]2O`, the GI50 is inactive: 14.8 µM.

Consider `COC(=O)C1CC(C(=O)OC)c2nc3cc(C)c(C)cc3nc21` (stereo not drawn), for which the GI50 was inactive: > 100 µM.

Consider `CC(C)(CO)NC(=O)Nc1c(C(F)(F)F)cc(-c2ccccc2)[nH]c1=O`, for which the GI50 is inactive: > 100 µM.

For the compound `Cc1ccnc(NC(=S)Nc2ccccc2Cl)c1`, the GI50 is inactive: > 100 µM.

With `CC1=C(O)C(=O)C2C(=O)C1C(C)C2c1ccc(C)cc1` (stereo not drawn), the GI50 is inactive: > 100 µM.

`O=CC1C(Cl)=Nc2nc3ccccc3n2C1c1ccccc1` (stereo not drawn): the GI50 is inactive: > 100 µM.

Turning to `Nc1onc2c1Cc1c(noc1N)-c1ccccc1-2`, the GI50 was inactive: 76.4 µM.

For `CCC(N)(C(=O)O)C(C)C` (stereo not drawn), the GI50 is inactive: > 100 µM.

For the compound `CN1CCN(CCCCN2c3ccccc3Sc3ccc(C(=O)c4ccccc4)cc32)CC1`, the GI50 was inactive: 1.91 µM.

As for `CC(C)(Br)C(=O)/C=C/c1ccccc1`, the GI50 is inactive: 20 µM.

As for `CC(SC(=S)N1CCCC1)C(=O)Nc1nnc(-c2ccc(Cl)cc2)o1` (stereo not drawn), the GI50 was inactive: 34.3 µM.

For the compound `CCCCc1ccc(N2C(=O)c3cc(C)cnc3S2(=O)=O)cc1`, the GI50 was inactive: > 100 µM.

For the compound `Cc1ccc(/C=C/C(=O)c2cccc3ccccc23)cc1`, the GI50 is inactive: 17.3 µM.

For the compound `CCCCCCCCCCC[N+]1(Cc2ccccc2)CC2CCN(Cc3ccccc3)CC2C1` (stereo not drawn), the GI50 is inactive: 1.55 µM.

With `O=C1NCC2=C1CCC1c3ccccc3CCN21` (stereo not drawn), the GI50 was inactive: > 100 µM.

For `CCOc1cc(NC(C)=O)ccc1C(=O)NN1C(=O)C(Cl)C1c1ccccc1` (stereo not drawn), the GI50 is inactive: 14.1 µM.

Take `COC1CC(OC2C(C)OC(OC3C(C)OC(OC4C(C)OC(O[C@H]5CC[C@@]6(C)C(=CC[C@]7(O)[C@@H]6C[C@@H](OC(=O)/C=C(\C)C(C)C)[C@@]6(C)[C@]7(O)CC[C@@]6(O)C(C)=O)C5)CC4OC)CC3OC)CC2OC)OC(C)C1O` (stereo partly drawn): the GI50 is inactive: > 12.5 µM.

With `Cc1c(O)nc(-n2[nH]c3c(c2=O)CCCC3)[nH]c1=O`, the GI50 is inactive: > 100 µM.

On to `CCOC(=O)C1CC(O)C(=O)N1C` (stereo not drawn), for which the GI50 is inactive: > 100 µM.

Take `COc1cc(OC)c(/C=N/N=C(\N)NO)c(OC)c1`: the GI50 was inactive: > 100 µM.

`CNc1nc(SC)nc2c1c(N)nn2C`: the GI50 was inactive: > 100 µM.

Regarding `c1ccc(-c2sc(-c3cccs3)cc2Cc2cccs2)cc1`, the GI50 is inactive: > 10 µM.

Turning to `CCOC(=O)CC(=O)ON(C)C(C)=O`, the GI50 is inactive: > 100 µM.

Take `Cc1cc(C)c(P2C(=C(O[Si](C(C)C)(C(C)C)C(C)C)C(C)(C)C)C2(c2ccccc2)c2ccccc2)c(C)c1` (stereo not drawn): the GI50 is inactive: > 100 µM.

`Cc1cc2nc3ccccc3n2c2ccccc12`: the GI50 is inactive: > 10 µM.

`C/C(=N\NC(=O)C(N)=O)c1c(O)cc(C)oc1=O`: the GI50 is inactive: > 100 µM.

As for `O=C(NC(Cc1c[nH]c2ccccc12)C(=O)O)/C(=C/c1ccccc1)NC(=O)c1ccccc1` (stereo not drawn), the GI50 is inactive: > 100 µM.

Turning to `CCOC(=O)c1cn(CC)c2cc3c(cc2c1=O)CCS3(=O)=O`, the GI50 is inactive: > 100 µM.

For the compound `CCOC(=O)Cc1nc2cc(F)c(F)cc2[nH]c1=O`, the GI50 was inactive: > 100 µM.

With `COc1ccc2c(c1)CC1COc3cc(OC)ccc3C1O2` (stereo not drawn), the GI50 was inactive: > 100 µM.

As for `COc1cccc(/C=C2\S/C(=N/Nc3nc(C)c(C)s3)NC2=O)c1O`, the GI50 was inactive: > 100 µM.

As to `C=C1C(=O)OC2/C=C(/C)C(OC(C)=O)CC(O)/C(C)=C\C(OC(=O)/C(C)=C\C)C12` (stereo not drawn), the GI50 is inactive: > 100 µM.

`C=C1c2c(n(S(=O)(=O)c3ccccc3)c3ccccc23)[C@@]2(C(=O)OC)CC3C=CC2N1C3`: the GI50 was inactive: > 100 µM.

`Oc1ccccc1C1C=C(c2ccccc2)NC(N2CCCCC2)=C1c1nc2ccccc2[nH]1` (stereo not drawn): the GI50 is inactive: 17.4 µM.

For the compound `c1ccc(C2=NCCc3cc4c(cc32)OCO4)cc1`, the GI50 was inactive: > 100 µM.

As to `C[C@@]12CC[C@H]3[C@@H]4CCC(=O)N[C@@]4(C)CC[C@@H]3[C@@]1(C)CC[C@H](OC(=O)Cc1ccc(N(CCCl)CCCl)cc1)C2`, the GI50 was inactive: 18.6 µM.

In the case of `CCCCCCC(/C=N/O)C(C)(O)CCC` (stereo not drawn), the GI50 is inactive: > 100 µM.

In the case of `CCC12C=CCN(CCc3c([nH]c4ccccc34)/C=C\1)C2` (stereo not drawn), the GI50 is inactive: > 100 µM.

For the compound `OC1/C(=C/c2ccccc2)CNC/C1=C\c1ccccc1` (stereo not drawn), the GI50 is inactive: > 100 µM.

With `O=S(=O)(O)c1ccc(/N=N\c2c(O)ccc3cc(Br)ccc23)cc1`, the GI50 was inactive: > 100 µM.

On to `COC(=O)[C@@H](O)[C@]1(C(=O)OC)C2O[C@@H](OC)[C@@H]1CCCCCC[C@H]2O`, for which the GI50 is inactive: > 100 µM.

Regarding `CC(C)CCCC(C)[C@H]1CCC2[C@@H]3CCC4Nc5nocc5C[C@]4(C)C3CC[C@@]21C` (stereo partly drawn), the GI50 is inactive: 30.9 µM.

Consider `CC(=O)c1nc2ccccc2n1CC(=O)c1ccc([N+](=O)[O-])cc1`, for which the GI50 is inactive: 28.2 µM.

In the case of `CCOCC(=O)N[C@H]1CCc2cc(OC)c(OC)c(OC)c2-c2ccc(SC)c(=O)cc21`, the GI50 was active: < 0.01 µM.

For `C[n+]1c(-c2ccc(/C=N\N3CCN(/N=C/c4ccc(-c5cn6ccsc6[n+]5C)cc4)CC3)cc2)cn2ccsc21`, the GI50 was inactive: 67.8 µM.

For the compound `Cc1cnc2nc(-c3sccc3C)cc(O)c2c1`, the GI50 is inactive: 6.12 µM.

With `N=C(N)N/N=C/c1c(Cl)nc2sccn12`, the GI50 is inactive: 19.1 µM.
